Values joined by “and” are separate entries in the source; they are usually repeats but may differ in a detail not shown here. Equal values may be shown once. At least one read-out could not be matched to a standard name with certainty.
System: yeast genes (level of expressed mRNA)
Test: DNA chip analysis of expressed mRNA of yeast genes after 2 h culture with a toxic chemical substance
Type: cell-based, Saccharomyces cerevisiae S288C
Conditions: concentration of each substance as in table of b30
Experimental: Yeast (Saccharomyces cerevtisiae S288C (α SUC2mal mel gap2 CUP1)) were cultured at 25° C. on YPD medium (yeast extract 1%, polypepton 2%, glucose 2%). One of toxic chemical substances was added to the cell at logarithmic growth phase, and the cell was further cultured for two hours. Cell was cultured without any chemical substance in the same condition, and was used as control. Concentrations of the chemical substances were defined to inhibit the growth of the yeast but not lead to death.
After the completion of cultivation, the culture was centrifuged to collect the cells. To the cells, sodium acetate buffer (50 mM sodium acetate, 10 mM EDTA, 1% SDS) was added, and the mixture was shaken at 65° C. for five minutes, followed by returning to room temperature, and obtaining the supernatant, which procedure was repeated two times. To the supernatant, ½ amount of a solution of phenol/chloroform was added, and the mixture was centrifuged to give a supernatant, which was added with an equal amount of chloroform, and the mixture was centrifuged to give a supernatant. To the supernatant, an equal amount of isopropanol containing 0.3 M sodium acetate was added, and the mixture was allowed to stand at room temperature for 30 minutes, after which the mixture was centrifuged to give a sediment of the whole RNAs. Seventy % ethanol was added to the sediment, and the mixture was again centrifuged to give a sediment, which was then dried and dissolved in water. mRNA was isolated from the whole RNAs as followings. In view of the fact that a poly A chain is attached to the 3′ terminus of mRNA, a polynucleotide having a poly T structure which was immobilized on the surface of latex beads was used to trap the mRNA, and then the mRNA was washed and eluted with spine column (Oligotex-dT30<Super>mRNA Purification Kit, Takara). Reverse transcription of the mRNA was conducted with a reverse transcriptase (Super Script II Reverse Transcriptase; catalogue No. 18064-014, GibcoBRL) using fluorescence-labeled nucleotides to give cDNAs that were introduced with Cy3-dUTP or Cy5-dUTP during the reverse transcription.
The labeled cDNAs were dissolved in TE buffer (10 mM Tris-HCl/1 mM EDTA, pH8.0), and the solution was dropped on the DNA chip containing the whole genes of yeast (DNA Chip Research Inc. Japan) so that the cDNAs were hybridized on the DNA chip at 65° C. for over 12 hours. The fluoresces intensity of the DNA chip was read with a scanner, and the ratio relative to the fluorescence intensity resulting from the absence of chemical substance was estimated as the following, which is shown in Tables 1 to 9: [formula] […]

Compound: Oc1cc(Cl)c(Cl)cc1Cl [(6), 2,4,5-trichlorophenol]
- The level of expressed mRNA in the presence of chemical substance/The level of expressed mRNA in the absence of chemical substance (yeast gene YGL058W): 1.0 and 1.5
- The level of expressed mRNA in the presence of chemical substance/The level of expressed mRNA in the absence of chemical substance (yeast gene YGR180C): 0.6 and 1.0
- The level of expressed mRNA in the presence of chemical substance/The level of expressed mRNA in the absence of chemical substance (yeast gene YMR072W): 1.6 and 2.4
- The level of expressed mRNA in the presence of chemical substance/The level of expressed mRNA in the absence of chemical substance (yeast gene YMR284W): 0.8 and 1.2

Source: patent US20050112573A1, “Method of detecting toxic substance” (priority 2001, published 2005)
